Data on one sequence can be found in the supplement of paper PMC5998384.

Data set [1] has as its system HeLa Kyoto. Kind of data set: solubility in G1/S (NP-40 vs SDS abundance) (log2 ratio); higher = more soluble. The following applies: cell cycle stage: G1/S.
In data set [2] the test system is HeLa Kyoto. Kind of data set: solubility change mitosis vs G1/S (difference of NP-40 vs SDS log2 ratios) (log2 ratio difference); higher = more soluble in mitosis.
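Wherever solubility change mitosis vs G1/S (difference of NP-40 vs SDS log2 ratios) is given: synchronized HeLa Kyoto cells (double thymidine block for G1/S, nocodazole release for mitosis), protein amounts in NP-40 versus SDS lysates quantified by mass spectrometry, three biological replicates.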
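Wherever solubility in G1/S (NP-40 vs SDS abundance) is given: HeLa Kyoto cells arrested at G1/S by double thymidine block, proteins quantified by TMT10plex mass spectrometry in mild NP-40 versus SDS extracts, three biological replicates.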

Turning to “MAEAGPQAPPPPGTPSRHEKSLGLLTTKFVSLLQEAKDGVLDLKLAADTLAVRQKRRIYDITNVLEGIGLIEKKSKNSIQWKGVGPGCNTREIADKLIELKAEIEELQQREQELDQHKVWVQQSIRNVTEDVQNSCLAYVTHEDICRCFAGDTLLAIRAPSGTSLEVPIPEGLNGQKKYQIHLKSVSGPIEVLLVNKEAWSSPPVAVPVPPPEDLLQSPSAVSTPPPLPKPALAQSQEASRPNSPQLTPTAVPGSAEVQGMAGPAAEITVSGGPGTDSKDSGELSSLPLGPTTLDTRPLQSSALLDSSSSSSSSSSSSSNSNSSSSSGPNPSTSFEPIKADPTGVLELPKELSEIFDPTRECMSSELLEELMSSEVFAPLLRLSPPPGDHDYIYNLDESEGVCDLFDVPVLNL [E2F4]”, in data set [1], the “solubility in G1/S (log2)” value is 0.164. The “solubility change mitosis (log2)” value in data set [2] is -0.062.
